Data from PubChem BioAssay AID2675 (National Center for Advancing Translational Sciences (NCATS), 2010).
Out of some 280,000 compounds screened, about 100 (0.036%) were called active. The shares of active, inactive and inconclusive entries below differ from those in the screen. Calls follow the shape of the dose curve; as a rule, active = well fitted inhibition curve with a large enough effect in the signal ratio, with a control signal flat (not every such curve was filed as active); inconclusive = small, poorly fitted or top-dose-only effect, or effect the other way, or a change in a side signal; inactive = no such curve, though single readings can be large or run the other way; the % refers to the signal ratio. A potency beside an inconclusive call is a rough fit, not a confirmed value. A note “side channel” means that the fit belongs to a control or component signal, not to the main read-out.
Potency is read from the fitted curve at half-maximal effect; tags tell the direction and shape of the fitted curve or compound fluorescence and quenching.

These compounds were tested against Muscleblind-like protein 1 (Homo sapiens) (UniProt Q9NR56) (assay: qHTS Assay for Inhibitors of MBNL1-poly(CUG) RNA binding). Conditions: TR-FRET MBNL1-His/biotin-(CUG)12 binding, 665/545 ratio; series mostly up to 57.5 µM.
Chain of UniProt Q9NR56 (Q9NR56 whole entry, looked up): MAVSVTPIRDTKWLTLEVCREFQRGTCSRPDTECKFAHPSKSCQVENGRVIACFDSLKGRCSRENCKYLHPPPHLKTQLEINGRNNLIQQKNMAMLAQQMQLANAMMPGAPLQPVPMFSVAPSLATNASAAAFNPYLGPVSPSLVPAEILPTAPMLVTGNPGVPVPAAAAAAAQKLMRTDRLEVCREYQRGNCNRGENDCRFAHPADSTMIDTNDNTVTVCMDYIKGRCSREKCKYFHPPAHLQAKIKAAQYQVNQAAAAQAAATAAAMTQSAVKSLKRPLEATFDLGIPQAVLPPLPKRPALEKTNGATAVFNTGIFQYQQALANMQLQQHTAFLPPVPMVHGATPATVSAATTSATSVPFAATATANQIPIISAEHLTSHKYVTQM
Summary of the method: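 Compound titration spanned 92 nM–58 uM against the MBNL1-His/biotin-(CUG)12 complex. After 60 min at room temperature with 5 nM streptavidin-XL665 and 0.055 ng/ul terbium anti-His, ratiometric 665/545 nm emission (Ex 340 nm) normalized to controls.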
`CCSC1(SCC)N=C(N)C2(C#N)C(c3ccc(OC)c(OC)c3OC)C12C#N` (configuration not stated) was tested, and the Potency was inconclusive: 39.8 µM [quencher, side channel, single point]. For `O=C(COc1ccccc1)N1CCN(S(=O)(=O)c2cccc([N+](=O)[O-])c2)CC1`, the Potency was inconclusive: 11.2 µM [quencher, side channel, partial curve]. For `CN(Cc1ccccc1)c1ccc(C(CC(N)=O)NC(=O)c2ccccc2)cc1[N+](=O)[O-]` (configuration not stated), the Potency was inconclusive: 28.2 µM [quencher, side channel, partial curve]. In the case of `COC(=O)c1sc2ccccc2c1N`, the Potency is reported as inconclusive: 0.158 µM [quencher, side channel, full curve, poor fit]. For `O=C(NCC1CCCO1)/C(=C\c1ccco1)NC(=O)c1ccccc1` (configuration not stated), the Potency was inconclusive: 22.4 µM [quencher, side channel, partial curve]. With `CN1CCN(c2ccc(NC(=O)c3ccc(-c4cccc([N+](=O)[O-])c4)o3)cc2)CC1` the Potency was inconclusive: 8.91 µM [quencher, side channel, partial curve]. For `CN(C)CCCNC1=CC(=O)OC12CCCCC2`, the Potency was inconclusive: 39.8 µM [quencher, side channel, single point]. For `O=C(NCc1ccco1)C1CC(O)CN1C(=O)Nc1ccccc1` (configuration not stated), the Potency was inconclusive: 25.1 µM [fluorescent, side channel, single point]. In the case of `O=[N+]([O-])c1ccc(Cl)c(S(=O)(=O)/N=C(/c2ccccc2)N2CCOCC2)c1`, the Potency is reported as inconclusive: 3.55 µM [quencher, side channel, full curve]. With `Cc1ccc(NC(=O)CNC(=O)c2ccc3c(c2)OCO3)nc1` the Potency was “inactive”. In the case of `CCOC(=O)CCCc1ccc(/C(C)=N/NC(N)=S)cc1`, the Potency is reported as inconclusive: 31.6 µM [quencher, side channel, single point]. In the case of `CCn1cc(C2=NCC(C)O2)c2ccccc21` (configuration not stated), the Potency is reported as “inactive”. For `COc1ccc(C2CC(c3ccc4ccccc4c3)=NN2C(=O)CN2CCC(C(N)=O)CC2)cc1` (configuration not stated), the Potency was inconclusive: 28.2 µM [quencher, side channel, partial curve]. For `CC(C)(C)c1nc(CN2CCOCC2)cc(CN2CCOCC2)c1O`, the Potency was “inactive”. In the case of `COC(=O)Cc1ccc(NC(=S)NCc2ccc(F)cc2)cc1`, the Potency is reported as inconclusive: 0.0891 µM [fluorescent, side channel, full curve, poor fit]. In the case of `O=C(CSc1nnc(CNC(=O)c2ccc(F)cc2)o1)NCc1ccccc1Cl`, the Potency is reported as “inactive”. With `CCc1cc(OCCCCNCc2ccccc2)ccc1Cl` the Potency was inconclusive: 0.631 µM [quencher, side channel, partial curve, poor fit]. In the case of `CCc1ccc(/C=C2\CN(CC)Cc3c2nc2ccccc2c3C(=O)O)cc1`, the Potency is reported as inconclusive: 11.2 µM [quencher, side channel, partial curve]. In the case of `CN(CCCC(=O)NCCc1ccccc1)S(=O)(=O)c1ccc([N+](=O)[O-])cc1`, the Potency is reported as inconclusive: 7.08 µM [quencher, side channel, partial curve]. For `CC(=O)N1CCN(C(=O)c2ccc3c(c2)S(=O)(=O)c2ccccc2C3=O)CC1`, the Potency was inconclusive: 12.6 µM [quencher, side channel, partial curve]. `COc1ccc(C(C)(C)C)cc1NC(=O)COC(=O)c1ccc([N+](=O)[O-])o1` was tested, and the Potency was inconclusive: 15.8 µM [quencher, partial curve]. With `Cc1nc(SCCO)c([N+](=O)[O-])[nH]1` the Potency was inconclusive: 28.2 µM [quencher, side channel, single point]. In the case of `COc1cccc(NC(=O)CSc2ncc(S(=O)(=O)c3ccccc3)c(=O)[nH]2)c1`, the Potency is reported as “inactive”. With `COc1ccc(NC(=S)Nc2ccc(N)c([N+](=O)[O-])c2)cc1` the Potency was inconclusive: 14.1 µM [quencher, side channel, partial curve]. In the case of `COc1cc(C(CC(=O)Nc2ncccc2C)N2Cc3ccccc3C2=O)cc(OC)c1OC` (configuration not stated), the Potency is reported as “inactive”. In the case of `CN1CCN(c2ccc(S(=O)(=O)N3CCCCC3)cc2NC(=O)c2cccc([N+](=O)[O-])c2)CC1`, the Potency is reported as inconclusive: 14.1 µM [quencher, side channel, partial curve]. With `COc1ccc(/C=C2\SC(=S)N(N3C(=O)CCC3=O)C2=O)cc1O` the Potency was inconclusive: 12.6 µM [quencher, side channel, partial curve]. For `COc1cc(OC)cc(Oc2ccc(S(=O)(=O)N3CCCCC3)cc2[N+](=O)[O-])c1`, the Potency was inconclusive: 20 µM [quencher, side channel, partial curve]. With `COC(=O)C1CSC(c2ccc(Cl)cc2)N1C(=O)c1ccccc1` (configuration not stated) the Potency was inconclusive: 1.78 µM [quencher, side channel, full curve]. In the case of `CC1=NN(CCC#N)C(=O)/C1=C/c1ccc(N(C)C)cc1`, the Potency is reported as inconclusive: 4.47 µM [quencher, side channel, full curve]. With `O=c1cc(-c2ccccc2[N+](=O)[O-])oc2ccccc12` the Potency was inconclusive: 28.2 µM [quencher, partial curve]. For `CCn1c(Oc2cccc(Br)c2)nc2c1c(=O)n(C)c(=O)n2C`, the Potency was “inactive”. In the case of `Cc1cccc2cc(C(c3nnnn3CC3CCCO3)N3CCc4ccccc4C3)c(=O)[nH]c12` (configuration not stated), the Potency is reported as inconclusive: 17.8 µM [quencher, side channel, partial curve]. In the case of `COc1ccc(CCNC(=O)c2coc(=O)c(Br)c2)cc1`, the Potency is reported as inconclusive: 12.6 µM [quencher, side channel, partial curve]. For `CCC(=O)N(CC)C1=C(O)c2ccccc2C(=O)C1=O`, the Potency was inconclusive: 10 µM [quencher, side channel, partial curve]. For `Nc1nc(N)c2sc3nc(C(F)(F)F)cc(C(F)(F)F)c3c2n1`, the Potency was inconclusive: 31.6 µM [quencher, side channel, partial curve]. With `O=C(N/N=C/c1ccccc1[N+](=O)[O-])c1cnccn1` the Potency was inconclusive: 10 µM [quencher, side channel, partial curve].
